Test results taken from the supplement of paper PMC5895741.

B1: MS2 coat protein; the commonest letter at each place (parent)
chain: MASNFTQFVLVDNGGTGDVTVAPSNFANGVAEWISSNSRSQAYKVTCSVRQSSAQNRKYTIKVEVPKVATQTVGGVELPVAAWRSYLNMELTIPIFATNSDCELIVKAMQGLLKDGNPIPSAIAANSGIY

Variants of: B1
Experiment: apparent fitness score (VLP assembly selection enrichment vs plasmid library) (log10 ratio); higher = better expression / assembly into well-formed VLPs
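Also: counts from Illumina MiSeq reads, cDNA of packaged RNA versus plasmid DNA taken before selection, each replicate independent from library construction onward, expression induced with 0.1% arabinose.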

Apparent fitness score (log10): each site, then its substitutions
I129: M -0.361; V -1.44; K < -4; T < -4; L 0.863; S < -4; F 0.644; R < -4
G128: N < -4; T -0.838; I < -4; K < -4; P < -4; R -1.12; M -0.327; D < -4; C < -4; F < -4; V < -4; L < -4; A 0.753; S -0.239; Y < -4; H < -4; E < -4; W < -4; Q < -4
S127: Q < -4; Y -0.624; V 0.177; W < -4; T -0.817; R -0.65
Y130: K < -4; H 0.456
